We go through 66 sequences from the supplement of paper PMC10126150.

In this series the test system is ATP. The series is described as follows: switch fluorescence ratio, 500 uM ATP over buffer (Cy3 cluster intensity, sum of 5 cycles each) (fold (ratio)); higher = stronger signal-on switching upon ATP binding; sequences stand for … in TCGTCGGCAGCGTCAGATGTGTATAAGAGACAGTTTTTTTTTTTTTTTTTTTTTTTTT…TC. The note with it: aptamer strand: ATP DNA aptamer (quencher-CACCTGGGGGAGTATTGCGGAGGAAGG + anchor), 100 nM annealed; ATP concentration: 500 uM; one replicate. The procedure, abridged: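 Cy3-labelled switching-strand clusters on a modified Illumina MiSeq flow-cell were annealed to 100 nM quencher-labelled ATP aptamer, imaged in selection buffer, then imaged after 15 min with 500 uM ATP at 22 °C. Five buffer/ATP cycles ran, with NaOH stripping and re-annealing between them. The fluorescence ratio is summed target-cycle over summed buffer-cycle Cy3 intensity per cluster, averaged per switch-domain sequence. Clusters outside 100-1000 RFU were excluded.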

Values marked as one replicate rest on one cluster of the flow cell; about a third of the high ones do not repeat.
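Also: ATP exposure 15 min at 22 °C before imaging.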

TGGTAACCAG: the switch fluorescence ratio was found to be 1.03. The figure for GGGGCACTTG is 0.997; for CACTTAAGAG it is 1.01. The figure for CATATCCCGG is 1.01.

On to TATTGCGAGG, for which the switch fluorescence ratio came out at 1.03. CATGTTGGAA: the switch fluorescence ratio came to 1.01.

As to TATATAGACC, the switch fluorescence ratio is 1.14. For TTCCTGGGCG the value was 1.07; for GTACCAGTAC, 1.12. For AAAATGAGTC the value was 1.03; for TTGCTCCACG, 1.03; for GCATTTGGGC, 1.02. The figure for CAGGGATCAT is 0.977; for GATATCGAAC it is 0.957.

As for GTGGATATGA, the switch fluorescence ratio was 1.02.

Consider AAATTTTACA, for which the switch fluorescence ratio stood at 1.08. Regarding TAGTAGGGAG, the switch fluorescence ratio is 0.988. The figure for CAGCCCTCT is 1.14; for ATGACGGAAA it is 1.07.

Turning to GGTTTCTGG, the switch fluorescence ratio came to 0.991. For ATAAACGTCG the value was 0.968; for TTTGGCAATG, 1.07; for ACTACCTGTG, 1.45.

As for CGTGTCATGA, the switch fluorescence ratio was found to be 1.

For the sequence CGTGTGAACG, the switch fluorescence ratio came out at 0.922. The figure for ACTTTGGGTC is 1.03; for GGGGCCAATG it is 1.01; for TGCTGATGGA it is 0.965. The figure for CCTGGAGTTC is 1.02. For GGGCGCGTGG the value was 1; for GCATGGAGTG, 1.01; for ATAAATTGTG, 0.985.

GCTCGATGGT: the switch fluorescence ratio was 1.02. For AAATGCAATG the value was 1.04; for TCCTGACGAG, 1.06; for GAGTGCACAG, 0.974. For ACAATAGGGG the value was 0.979.

For CGTTTAAGCT, the switch fluorescence ratio turned out to be 1.01. As for TGTGGAAAGT, the switch fluorescence ratio was 0.977. For TAAGCGGGCC the value was 1; for GACGGGCAGC, 1.06.

Take GCACGCTGCA: the switch fluorescence ratio is 1.08. The figure for CCGATAGAGC is 1.06; for ATTGAGAGAG it is 0.988; for GATCTGACGA it is 0.99. The figure for CGATGCGATG is 1.45.

GTATTTACGG: the switch fluorescence ratio stood at 1.03. As for TGTTAGCCTA, the switch fluorescence ratio was 0.996.

For the sequence TTAATATGCC, the switch fluorescence ratio came to 0.945. With TATGCCCTGT, the switch fluorescence ratio stood at 1.03. On to GGAACGGAAT, for which the switch fluorescence ratio is 1.09. Consider TTAGTACTTT, for which the switch fluorescence ratio was 1.02. For CAAGGACGCT the value was 1.04; for CATATGCGCG, 1.02; for ATAGGTTAAT, 1.06. For AGGTATCAAG the value was 1.04; for CTTTAGGCCT, 1.08. For AGAAACACGT the value was 1.07; for TCACCCTTCT, 1.07; for TTCTTGGCTA, 0.976. For the sequence AAATATTTGG, the switch fluorescence ratio amounted to 0.992. For TAGCAGGCGT the value was 1.02; for GTGCGCCCTA, 1.02. The figure for ATTGGGTCTG is 0.933. As to CTAATTAGTA, the switch fluorescence ratio was found to be 1.05. TCTGTATCAA: the switch fluorescence ratio turned out to be 1.07.
